{
  "source": "the supplement of paper PMC3334620",
  "note": "Over roughly 33,000 sequences, “E-score (-0.5 to 0.5)” has its median near -0.011; the highest 2% begin near 0.28. Some of the results follow.",
  "data": [
    {"biological_target": "T1, Gcr1 (UniProt P07261)", "T1 sequence": "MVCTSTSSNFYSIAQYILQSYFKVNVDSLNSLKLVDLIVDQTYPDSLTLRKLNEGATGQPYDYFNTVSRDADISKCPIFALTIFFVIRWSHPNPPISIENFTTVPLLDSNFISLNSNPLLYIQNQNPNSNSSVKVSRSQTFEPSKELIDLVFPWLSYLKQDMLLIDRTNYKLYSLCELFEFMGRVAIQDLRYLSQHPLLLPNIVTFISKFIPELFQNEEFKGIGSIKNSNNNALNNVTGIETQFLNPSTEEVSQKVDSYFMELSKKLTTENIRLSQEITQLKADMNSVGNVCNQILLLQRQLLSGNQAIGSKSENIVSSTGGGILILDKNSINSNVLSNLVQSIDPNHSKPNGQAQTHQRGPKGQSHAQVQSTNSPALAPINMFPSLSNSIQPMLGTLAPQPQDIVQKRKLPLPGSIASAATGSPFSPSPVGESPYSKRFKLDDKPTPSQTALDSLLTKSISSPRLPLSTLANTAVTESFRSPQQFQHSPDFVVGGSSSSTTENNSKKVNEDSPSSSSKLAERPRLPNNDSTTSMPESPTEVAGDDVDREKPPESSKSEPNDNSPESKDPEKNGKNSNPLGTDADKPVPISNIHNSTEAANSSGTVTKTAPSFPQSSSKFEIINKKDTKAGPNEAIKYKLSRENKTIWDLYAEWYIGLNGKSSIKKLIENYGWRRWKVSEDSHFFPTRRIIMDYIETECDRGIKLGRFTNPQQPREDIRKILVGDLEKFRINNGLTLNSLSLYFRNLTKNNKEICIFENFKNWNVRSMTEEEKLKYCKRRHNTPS", "test": "PBM E-score (8-mer binding enrichment) (E-score (-0.5 to 0.5)); higher = stronger / more preferred TF binding; most listed sequences are background and not binding sites", "conditions": "protein concentration: 100 nM; construct: GST-full length", "procedure,_shortened": "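Full-length yeast transcription factors or their DNA-binding domains, GST-tagged and expressed with PURExpress, were applied at about 100-200 nM to universal all-10-mer Agilent arrays. These arrays had been made double-stranded by primer extension on fresh or once-stripped slides. Detection used fluorescent anti-GST, normalisation used masliner, and E-scores for ungapped eight-base words pooled with reverse complements came from the Universal PBM Analysis Suite.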", "values": [
      {"sequence": "CTCTAAAC", "PBM E-score": 0.0413},
      {"sequence": "CCACTGAA", "PBM E-score": 0.13},
      {"sequence": "CATTAGCC", "PBM E-score": -0.269},
      {"sequence": "AGCCGACC", "PBM E-score": -0.136},
      {"sequence": "CTTTTAGC", "PBM E-score": -0.171},
      {"sequence": "TCACCAAA", "PBM E-score": 0.117},
      {"sequence": "ACGAGATG", "PBM E-score": 0.163},
      {"sequence": "GCTCTCTA", "PBM E-score": -0.354},
      {"sequence": "GCGTAAAA", "PBM E-score": 0.225},
      {"sequence": "ATGCGATG", "PBM E-score": 0.0651},
      {"sequence": "CGTTGAAA", "PBM E-score": 0.0725},
      {"sequence": "TATCCAGA", "PBM E-score": 0.0553},
      {"sequence": "CCGGGCCG", "PBM E-score": -0.0357},
      {"sequence": "AGGATAGC", "PBM E-score": -0.035},
      {"sequence": "TCAACTGA", "PBM E-score": -0.0959},
      {"sequence": "AAATGGTG", "PBM E-score": 0.258},
      {"sequence": "ACCGTCTG", "PBM E-score": -0.117},
      {"sequence": "ACACATGA", "PBM E-score": -0.0602},
      {"sequence": "ATAGCGTG", "PBM E-score": -0.197},
      {"sequence": "ATTGATTC", "PBM E-score": 0.113},
      {"sequence": "CACCTTAC", "PBM E-score": 0.0428},
      {"sequence": "TAGAAGGA", "PBM E-score": -0.205},
      {"sequence": "AGGCTCTG", "PBM E-score": -0.211},
      {"sequence": "AACAGAAC", "PBM E-score": 0.138},
      {"sequence": "AGCACCTA", "PBM E-score": 0.241},
      {"sequence": "CATGACGG", "PBM E-score": -0.0921},
      {"sequence": "CGGGTTAA", "PBM E-score": -0.0652},
      {"sequence": "CGCCATCA", "PBM E-score": -0.0561},
      {"sequence": "GGGGTGTA", "PBM E-score": -0.0995},
      {"sequence": "CGAGATAA", "PBM E-score": 0.142},
      {"sequence": "TCGTAGAA", "PBM E-score": 0.145},
      {"sequence": "ATAGGTGC", "PBM E-score": 0.0575},
      {"sequence": "CCCCGGCA", "PBM E-score": -0.0104},
      {"sequence": "CATTACAG", "PBM E-score": -0.0702},
      {"sequence": "AGGCATAG", "PBM E-score": -0.209},
      {"sequence": "ATGGAATG", "PBM E-score": -0.00503},
      {"sequence": "ATACAGTC", "PBM E-score": -0.258},
      {"sequence": "GGAAATAA", "PBM E-score": 0.09},
      {"sequence": "AAAAGGGG", "PBM E-score": 0.143},
      {"sequence": "ATCTTCGC", "PBM E-score": -0.0394},
      {"sequence": "ACTGTATC", "PBM E-score": -0.275},
      {"sequence": "AACGCACC", "PBM E-score": -0.0685},
      {"sequence": "ACCCTTGC", "PBM E-score": -0.187},
      {"sequence": "ACACCACA", "PBM E-score": 0.12},
      {"sequence": "CCTAATGA", "PBM E-score": 0.179},
      {"sequence": "CTATGTCA", "PBM E-score": 0.0536},
      {"sequence": "ACTATTGG", "PBM E-score": 0.0296},
      {"sequence": "CGTTGAGA", "PBM E-score": -0.138},
      {"sequence": "AGGCTTTC", "PBM E-score": -0.217},
      {"sequence": "ACAACTTG", "PBM E-score": 0.119},
      {"sequence": "AAGAACCT", "PBM E-score": 0.2},
      {"sequence": "CCCGAGCG", "PBM E-score": -0.169},
      {"sequence": "GATATAAA", "PBM E-score": -0.0128},
      {"sequence": "GATTATGC", "PBM E-score": -0.0723},
      {"sequence": "ACGGCAAC", "PBM E-score": 0.0889},
      {"sequence": "TCATATGA", "PBM E-score": -0.185},
      {"sequence": "ACGCTCTC", "PBM E-score": 0.0548},
      {"sequence": "AGAGTGAC", "PBM E-score": -0.146},
      {"sequence": "GTAATTAA", "PBM E-score": -0.228},
      {"sequence": "CTAACGTA", "PBM E-score": -0.17},
      {"sequence": "GGTATCTA", "PBM E-score": 0.292},
      {"sequence": "AGAATTAA", "PBM E-score": 0.133},
      {"sequence": "TCCGCCGA", "PBM E-score": 0.198},
      {"sequence": "AACCGGTT", "PBM E-score": 0.276},
      {"sequence": "AATGCCAT", "PBM E-score": -0.0478},
      {"sequence": "GGAAACGA", "PBM E-score": 0.0988},
      {"sequence": "AAGCAGCC", "PBM E-score": 0.308},
      {"sequence": "ACACAGAA", "PBM E-score": -0.0461},
      {"sequence": "AACCGGGT", "PBM E-score": 0.0617},
      {"sequence": "GCAGGTCA", "PBM E-score": -0.153},
      {"sequence": "CAGGTCAG", "PBM E-score": -0.172},
      {"sequence": "CGCGCGTA", "PBM E-score": 0.00763},
      {"sequence": "TGTCTCAA", "PBM E-score": -0.0159},
      {"sequence": "GTCTACCA", "PBM E-score": 0.0171},
      {"sequence": "AACAAATC", "PBM E-score": -0.0494},
      {"sequence": "AGGTTATG", "PBM E-score": -0.0729},
      {"sequence": "GCTATCAA", "PBM E-score": 0.216},
      {"sequence": "TCTGGCAA", "PBM E-score": 0.0938},
      {"sequence": "AAAAAATA", "PBM E-score": 0.236},
      {"sequence": "TATACCAA", "PBM E-score": 0.122},
      {"sequence": "AGTTCTCA", "PBM E-score": -0.0717},
      {"sequence": "CGGCGAAG", "PBM E-score": -0.105},
      {"sequence": "GTATTGAA", "PBM E-score": 0.0329},
      {"sequence": "ACAGTATA", "PBM E-score": -0.17},
      {"sequence": "CTGTAAAA", "PBM E-score": 0.213},
      {"sequence": "GCTACTCC", "PBM E-score": 0.0342}
    ]}
  ]
}
